The results in this text go back to the supplement of paper PMC8183993.

Molecules are shown by their SMILES. Several values for one entry are separate records, joined by “and”; a condition that tells them apart may be missing. Identical values can stand only once. Counter-ions that a name gives are not always drawn. ± gives the standard deviation of the averaged measurements. The full ranking holds about 3,100 compounds; the median of “mean cytoplasmic OPP incorporation (global translation) relative to DMSO” is about 100, and the lowest 2% start at about 56. The list shows a part of the results.

This test has as its system U2OS. The test is described as follows: mean cytoplasmic OPP incorporation (global translation) relative to DMSO (% of DMSO); higher = more protein synthesis. The settings on record: 10 µM; 24 h. As to the method: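 Primary image-based screen in U2OS cells: compounds at 10 uM for 24 h, then a 1 h o-propargyl-puromycin (OPP) pulse, click labelling, and high-throughput microscopy. Mean cytoplasmic OPP intensity and nuclei count were normalised to DMSO wells within each plate (DMSO = 100) and averaged over triplicate plates.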
As for `CNNCc1ccc(C(=O)NC(C)C)cc1` [Procarbazine hydrochloride], the “mean cytoplasmic OPP incorporation” value stood at 104.
As for `CC(C)CC(NC(=O)OCC1c2ccccc2-c2ccccc21)C(=O)O` (stereo not drawn), the figure is 109.
For the compound `COc1cc(/C=C/C(=O)O)ccc1O` [Fumalic acid (Ferulic acid)], the “mean cytoplasmic OPP incorporation” value amounted to 102.
As for `C[N+]1(C)CCC(=C(c2ccccc2)c2ccccc2)CC1` [Diphemanil methylsulfate], the figure is 105; as for `O=C(NC1CCOCC1)c1ccc(-c2cc(-c3c[nH]nc3-c3ccccn3)ccn2)cc1`, 93.3; as for `O=C1C(=O)N(Cc2ccc(Cl)c(Cl)c2)c2ccccc21` [Apoptosis Activator 2], 89.5.
As to `NS(=O)(=O)c1cc2c(cc1Cl)NCNS2(=O)=O` [Hydrochlorothiazide], the “mean cytoplasmic OPP incorporation” value is 104.
As for `CN(C)CCC=C1c2ccccc2C=Cc2ccccc21` [Cyclobenzaprine hydrochloride], the figure is 97.4; as for `O=C1c2cccc(O)c2C(=O)c2c(O)cc(CO)cc21` [Aloe-emodin], 89.9; as for `CN(C)CCc1c[nH]c2ccc(C[C@H]3COC(=O)N3)cc12` [Zolmitriptan (Zomig)], 104.
As for `CC1=C(/C=C/C(C)=C/C=C/C(C)=C/C(=O)Nc2ccc(O)cc2)C(C)(C)CCC1` [Fenretinide], the figure is 120; as for `NC(=O)c1ncn([C@@H]2O[C@H](CO)[C@@H](O)[C@H]2O)c1N`, 110; as for `NC(=O)c1ncn([C@@H]2O[C@H](CO)[C@@H](O)[C@H]2O)c1N` [Acadesine], 91.7 ± 2.2.
For the compound `CC(c1cc2ccccc2s1)N(O)C(N)=O` (stereo not drawn) [Zileuton], the “mean cytoplasmic OPP incorporation” value came to 105.
Turning to `Nc1ccc(-c2cccc3c(=O)cc(N4CCOCC4)oc23)cc1`, the “mean cytoplasmic OPP incorporation” value came out at 80.3.
Consider `C[C@@H]1C(=O)O[C@H]2C[C@@]34[C@H]5C[C@@H](C(C)(C)C)[C@]36[C@@H](OC(=O)[C@@H]6O)O[C@@]4(C(=O)O5)[C@]21O` [Ginkgolide A], for which the “mean cytoplasmic OPP incorporation” value was 103.
As for `CC[N+](C)(CC)CC(=O)Nc1c(C)cccc1C` [N-Methyllidocaine iodide], the figure is 98.4.
As for `CC(=O)Oc1cc(C(C)C)c(OCCN(C)C)cc1C` [Moxisylyte hydrochoride], the figure is 96.2.
As for `O=C1c2c(O)cc(O)cc2OC(c2ccc(O)c(O)c2)C1O` (stereo not drawn) [Taxifolin (Dihydroquercetin)], the figure is 104.
`CN(C)CCCOc1nn(Cc2ccccc2)c2ccccc12` [Benzydamine hydrochloride]: the “mean cytoplasmic OPP incorporation” value amounted to 102.
As for `COc1ccc(Nc2nccc(NCCO)n2)cc1` [Cardiogenol C hydrochloride], the “mean cytoplasmic OPP incorporation” value amounted to 89.9.
Turning to `FC(F)(F)c1ccc(/C=C/c2nc(COc3ccc(CCCCn4ccnn4)cc3)co2)cc1` [Mubritinib (TAK 165)], the “mean cytoplasmic OPP incorporation” value was determined as 103.
Take `FC(F)(F)c1ccc(/C=C/c2nc(COc3ccc(CCCCn4ccnn4)cc3)co2)cc1`: the “mean cytoplasmic OPP incorporation” value amounted to 108.
As for `CC(C)NCCN(C(C)C)S(=O)(=O)c1ccc(Cl)cc1Cl`, the figure is 95.9; as for `O=C1c2ccccc2C(=O)c2c(NCCc3ccc(O)cc3)ccc(NCCc3ccc(O)cc3)c21`, 120; as for `Nc1ccn(C[C@@H](CO)OCP(=O)(O)O)c(=O)n1` [Cidofovir (Vistide)], 101.
As to `CCCCC(=O)O[C@]1(C(=O)CO)[C@@H](C)C[C@H]2[C@@H]3CCC4=CC(=O)C=C[C@]4(C)[C@@]3(F)[C@@H](O)C[C@@]21C` [Betamethasone valerate (Betnovate)], the “mean cytoplasmic OPP incorporation” value was 107.
As for `CC(=O)OCC(=O)[C@@]1(O)CC[C@H]2[C@@H]3CCC4=CC(=O)C=C[C@]4(C)[C@@]3(F)[C@@H](O)C[C@@]21C` [Isoflupredone acetate], the figure is 102.
As to `CC(=O)OCC(=O)[C@@]1(O)CC[C@H]2[C@@H]3CCC4=CC(=O)CC[C@]4(C)[C@H]3C(=O)C[C@@]21C` [Cortisone acetate (Cortone)], the “mean cytoplasmic OPP incorporation” value was 101.
As for `Cn1cc(C(=O)OCC2CCN(CCNS(C)(=O)=O)CC2)c2ccccc21`, the figure is 106.
As for `C#C[C@]1(O)CC[C@H]2[C@@H]3[C@H](C)CC4=C(CCC(=O)C4)[C@H]3CC[C@@]21C` [Tibolone], the figure is 90.4.
As for `OC[C@@H](O)[C@@H](O)[C@H](O)[C@@H](O)CO` [Sorbitol (Glucitol)], the “mean cytoplasmic OPP incorporation” value stood at 105.
Take `C[C@@H](CN1CCC(n2c(=O)[nH]c3cc(Cl)ccc32)CC1)NC(=O)c1ccc2ccccc2c1`: the “mean cytoplasmic OPP incorporation” value worked out at 113.
As for `O=C(O)COc1cccc(-c2ocnc2-c2nc(-c3ccccc3)c(-c3ccccc3)o2)c1`, the figure is 100; as for `COc1cc2nc(N3CCN(C(=O)C4CCCO4)CC3)nc(N)c2cc1OC` (stereo not drawn) [Terazosin hydrochloride], 96.5 ± 1.3.
As for `CN1CCN(c2cccc(Nc3nc4c(-c5ccc(S(C)(=O)=O)cc5)cccn4n3)c2)CC1`, the figure is 87.2 ± 3.4; as for `Oc1ccc(O)cc1` [Hydroquinone], 97.
Consider `CNC(=O)c1nn(C)c2c1C(C)(C)Cc1cnc(Nc3ccc(N4CCN(C)CC4)cc3)nc1-2`, for which the “mean cytoplasmic OPP incorporation” value was 89.3 and 44.9.
As for `CC(C)(O)CC[C@@H](O)[C@](C)(O)[C@H]1CC[C@@]2(O)C3=CC(=O)[C@@H]4C[C@@H](O)[C@@H](O)C[C@]4(C)[C@H]3CC[C@]12C` [20-Hydroxyecdysone], the figure is 106; as for `Cc1ccc(/C=N/NC(=O)c2ccccc2Oc2ccccc2)o1`, 97.8 and 95.7; as for `Nc1ccc(S(=O)(=O)Nc2ccc(Cl)nn2)cc1` [Sulfachloropyridazine], 116.
Turning to `CCCn1c(=O)c2[nH]c(-c3ccccc3)nc2n(CCC)c1=O` [1,3-Dipropyl-8-phenylxanthine], the “mean cytoplasmic OPP incorporation” value worked out at 99.1.
As for `Cc1cnc(Nc2ccc(N3CCN(C)CC3)cc2)nc1Nc1cccc(S(=O)(=O)NC(C)(C)C)c1`, the “mean cytoplasmic OPP incorporation” value was 64.2.
`O=C1NC(=O)/C(=C/c2ccc(-c3ccc(F)cc3O)o2)S1`: the “mean cytoplasmic OPP incorporation” value is 95.3.
For the compound `CC(C)CCN1c2nc(Nc3cc(F)c(O)c(F)c3)ncc2N(C)C(=O)C1C` (stereo not drawn), the “mean cytoplasmic OPP incorporation” value was 100 ± 1.4.
As for `CC(=O)OC/C=C(C)/C=C/C=C(C)/C=C/C1=C(C)CCCC1(C)C` [Retinyl acetate], the figure is 105; as for `Clc1ccc2c(c1)N=C(N1CCNCC1)c1ccccc1N2` [N-Desmethylclozapine], 101; as for `NS(=O)(=O)c1cc2c(cc1Cl)N=C(CSCc1ccccc1)NS2(=O)=O` [Benzthiazide], 102.
As for `O=C1C(CC[S+]([O-])c2ccccc2)C(=O)N(c2ccccc2)N1c1ccccc1` (stereo not drawn) [Sulfinpyrazone], the figure is 90.3.
As for `CC1(CN2CCC(n3c(=O)[nH]c4ccccc43)CC2)OCc2ccccc2-n2cccc21` (stereo not drawn), the figure is 97.3; as for `NC(=O)c1noc([C@H](CCCC2CCCCC2)CC(=O)NO)n1`, 114; as for `COc1ccc(CCN(C)CCc2ccc(OC)c(OC)c2)cc1OC`, 105.
Turning to `COc1ccc(CCN(C)CCc2ccc(OC)c(OC)c2)cc1OC` [YS-035 hydrochloride], the “mean cytoplasmic OPP incorporation” value was found to be 99.3.
For the compound `CC(=O)O[C@]1(C(C)=O)CC[C@H]2[C@@H]3C=C(C)C4=CC(=O)CC[C@@H]4[C@H]3CC[C@@]21C` [Nomegestrol acetate], the “mean cytoplasmic OPP incorporation” value is 113.
Consider `CC[C@@]1(O)C(=O)OCc2c1cc1n(c2=O)Cc2cc3cc(O)ccc3nc2-1` [10-Hydroxycamptothecin], for which the “mean cytoplasmic OPP incorporation” value came to 86.6.
For the compound `CC(C)Oc1cccc(-n2c(CCc3c[nH]c4ccc(Br)cc34)nc3ccccc3c2=O)c1`, the “mean cytoplasmic OPP incorporation” value is 106.
As for `COc1ccc(-c2nc(C(=O)N3CCN(C)CC3)sc2-c2ccc(OC)cc2)cc1`, the figure is 105; as for `C[C@@H]1CC(=O)NN=C1c1ccc(NN=C(C#N)C#N)cc1` [Levosimendan], 101.
As for `Cc1nn(C)c2nc(NNC(=O)Nc3cc(Cl)nc(Cl)c3)cc(C(C)C)c12`, the figure is 110.
As for `C[C@@H](c1ncncc1F)[C@](O)(Cn1cncn1)c1ccc(F)cc1F` [Voriconazole], the figure is 104.
On to `Cc1c(NC(=O)c2ccc(C(C)(C)C)cc2)cccc1-c1cn(C)c(=O)c(Nc2ccc(C(=O)N3CCOCC3)cc2)n1`, for which the “mean cytoplasmic OPP incorporation” value came to 110.
On to `O=C(O)Cc1ccccc1Nc1c(Cl)cccc1Cl` [Diclofenac sodium], for which the “mean cytoplasmic OPP incorporation” value is 107.
As to `O=C(O)Cc1ccccc1Nc1c(Cl)cccc1Cl` [Diclofenac Diethylamine], the “mean cytoplasmic OPP incorporation” value worked out at 101.
As for `CN1CCN(CCCN2c3ccccc3Sc3ccc(S(=O)(=O)N(C)C)cc32)CC1` [Thioproperazine dimesylate], the figure is 108.
Regarding `CN[C@@H](C)[C@H]1[C@H](O)C[C@@]2(C)[C@@H]3CC[C@H]4C(C)(C)[C@@H](NC)CC[C@@]45C[C@@]35CC[C@]12C` [Cyclovirobuxin D (Bebuxine)], the “mean cytoplasmic OPP incorporation” value came out at 95.1.
As for `O=C(O)CC/C=C\C[C@H]1CO[C@@H](c2ccccc2Cl)O[C@H]1c1ccccc1O`, the figure is 97.5; as for `C[C@]12C=CC(=O)C=C1CC[C@@H]1[C@@H]2[C@@H](O)C[C@@]2(C)[C@H]1CC[C@]2(O)C(=O)CO` [Prednisolone], 96.5.
On to `O=c1ncn2nc(Sc3ccc(F)cc3F)ccc2c1-c1c(Cl)cccc1Cl`, for which the “mean cytoplasmic OPP incorporation” value came to 99.
As for `O=c1[nH]cc(F)c(=O)[nH]1` [5-fluorouracil], the figure is 107; as for `CS(=O)(=O)c1ccc([C@@H](O)[C@@H](CO)NC(=O)C(Cl)Cl)cc1` [Thiamphenicol], 101.
`Cc1cncc(CN2CCC(=C3c4ccc(Cl)cc4CCc4cccnc43)CC2)c1` [Rupatadine Fumarate]: the “mean cytoplasmic OPP incorporation” value is 115.
As for `CC(C)Cc1ccc([C@H](C)C(=O)O)cc1` [S-(+)-ibuprofen], the figure is 101; as for `CC(=O)Oc1cc(C(F)(F)F)ccc1C(=O)O` [Triflusal], 107.
As for `CC(C)C(=O)SCCCCCCC(=O)Nc1nc(-c2ccccc2)cs1`, the figure is 117; as for `CCCCCCCC/C=C\CCCCCCCC(=O)NCc1ccc(O)c(OC)c1` [Olvanil], 100; as for `CNC(=O)c1ccc2cc([C@@]3(O)CCn4cncc43)ccc2c1` [TAK-700 (Orteronel)], 104.
Turning to `N=c1ccn2c(n1)O[C@H]1[C@H](O)[C@@H](CO)O[C@H]12` [Cyclocytidine HCl], the “mean cytoplasmic OPP incorporation” value is 88.6.
On to `Cc1cc(NC(=O)C2=C(O)c3ccccc3S(=O)(=O)N2C)no1` [Isoxicam], for which the “mean cytoplasmic OPP incorporation” value turned out to be 104.
